The record followed here is PubChem BioAssay AID180 (DTP/NCI, 2004).

A number of entries come with more than one value. This list holds those alone. The source may hold further records. The records of an entry are repeated measurements in other runs, samples, wells, individuals or studies.

In the test the test system is BDF1 mice, Adenocarcinoma 755 s.c., tumor weight T/C. The test is described as follows: NCI In Vivo Anticancer Drug Screen. Data for tumor model Adenocarcinoma 755 (subcutaneous) in B6D2F1 (BDF1) mice. As to conditions: endpoint: mean tumor weight, higher = larger tumour. As to the method:
The antitumor activity of compounds was measured in mice bearing transplantable tumors. Survival or tumor size were measured and the results are expressed as the measurement made in the treated group (T) divided by the measurement made in the vehicle treated control group (C). The tumor model used in this assay is Adenocarcinoma 755 (subcutaneous) in B6D2F1 (BDF1) mice

[1] abbreviates: dose: 87.5 mg/kg/injection, schedule: Q01DX011 (ip), vehicle: methylcellulose (MC).

Consider `Cc1ccc(C(=O)Nc2ccc(S(=O)(=O)O)c3cc(S(=O)(=O)O)cc(S(=O)(=O)O)c23)cc1NC(=O)c1cccc(NC(=O)Nc2cccc(C(=O)Nc3cc(C(=O)Nc4ccc(S(=O)(=O)O)c5cc(S(=O)(=O)O)cc(S(=O)(=O)O)c45)ccc3C)c2)c1` (tested in a mixture with another compound), for which the T/C was 55 % of control and 89 % of control (dose: 85.0 mg/kg/injection, schedule: Q01DX011 (ip), vehicle: methylcellulose (MC)); 51 % of control and 82 % of control (dose: 340.0 mg/kg/injection, schedule: Q01DX011 (ip), vehicle: methylcellulose (MC)).

In the case of `CCOC(N)=O`, the T/C (dose: 250.5 mg/kg/injection, schedule: Q01DX011 (ip), vehicle: carboxymethylcellulose (CMC)) is listed as 39 % of control, 53 % of control, 69 % of control; the T/C (dose: 334.0 mg/kg/injection, schedule: Q01DX011 (ip), vehicle: carboxymethylcellulose (CMC)) was 26 % of control and 87 % of control; the T/C (dose: 410.0 mg/kg/injection, schedule: Q01DX011 (ip), vehicle: carboxymethylcellulose (CMC)) is 13 % of control, 28 % of control, 77 % of control.

Consider `CS(=O)(=O)OCCCCCOS(C)(=O)=O`, for which the T/C (dose: 12.5 mg/kg/injection, schedule: Q01DX011 (ip), vehicle: methylcellulose (MC)) is 35 % of control and 64 % of control.

As to `COc1ccccc1NC(=O)CSC(N)=O`, the T/C runs as follows: (dose: 100.0 mg/kg/injection, schedule: Q01DX011 (ip), vehicle: methylcellulose (MC)) 63 % of control and 89 % of control; (dose: 200.0 mg/kg/injection, schedule: Q01DX011 (ip), vehicle: methylcellulose (MC)) 38 % of control and 81 % of control; (dose: 400.0 mg/kg/injection, schedule: Q01DX011 (ip), vehicle: methylcellulose (MC)) 22 % of control and 49 % of control.

With `NC1(C(=O)O)CCCC1`, the T/C by setting is: (dose: 17.8 mg/kg/injection, schedule: Q01DX011 (ip), vehicle: carboxymethylcellulose (CMC)) 45 % of control and 72 % of control; (dose: 26.25 mg/kg/injection, schedule: Q01DX011 (ip), vehicle: carboxymethylcellulose (CMC)) 15 % of control and 81 % of control.

In the case of `C[C@H]1C(=O)O[C@@H]2CCN3CC=C(COC(=O)[C@](C)(O)[C@@]1(C)O)[C@H]23`, the T/C (dose: 22.5 mg/kg/injection, schedule: Q01DX011 (ip), vehicle: methylcellulose (MC)) is 38 % of control and 83 % of control; the T/C (dose: 45.0 mg/kg/injection, schedule: Q01DX011 (ip), vehicle: methylcellulose (MC)) is 17 % of control and 49 % of control; the T/C (dose: 90.0 mg/kg/injection, schedule: Q01DX011 (ip), vehicle: methylcellulose (MC)) is 12 % of control and 54 % of control.

In the case of `O=S1(=O)CCCO1`, the T/C (dose: 20.0 mg/kg/injection, schedule: Q01DX011 (ip), vehicle: carboxymethylcellulose (CMC)) was 49 % of control and 83 % of control; the T/C (dose: 40.0 mg/kg/injection, schedule: Q01DX011 (ip), vehicle: carboxymethylcellulose (CMC)) is 40 % of control and 101 % of control.

Take `C[N+](C)(C)c1ncnc2nc[nH]c12`: the T/C is reported as 22 % of control, 74 % of control, 95 % of control (dose: 5.0 mg/kg/injection, schedule: Q01DX011 (ip), vehicle: saline) and 1 % of control, 19 % of control, 32 % of control (dose: 10.0 mg/kg/injection, schedule: Q01DX011 (ip), vehicle: saline).

Turning to `O=C(CCBr)N1CCCN(C(=O)CCBr)CC1`, the T/C (dose: 28.0 mg/kg/injection, schedule: Q01DX011 (ip), vehicle: methylcellulose (MC)) is 70 % of control and 98 % of control.

For `O=C(CCCl)N1CCN(C(=O)CCCl)CC1`, the T/C is listed as 23 % of control, 65 % of control, 74 % of control (dose: 44.0 mg/kg/injection, schedule: Q01DX011 (ip), vehicle: methylcellulose (MC)) and 38 % of control, 66 % of control, 70 % of control under setting [1].

For `O=C1C=CC(=O)O1` (tested in a mixture with another compound), the T/C (dose: 45.0 mg/kg/injection, schedule: Q01DX011 (ip), vehicle: carboxymethylcellulose (CMC)) is 13 % of control and 58 % of control.

Take `CO[C@H](C(=O)[C@@H](O)[C@@H](C)O)[C@@H]1Cc2cc3cc(OC4CC(OC5CC(O)C(O)C(C)O5)C(O)C(C)O4)c(C)c(O)c3c(O)c2C(=O)[C@H]1OC1CC(OC2CC(OC3CC(C)(O)C(O)C(C)O3)C(O)C(C)O2)C(O)C(C)O1` (stereo not given in full): under “dose: 0.5 mg/kg/injection, schedule: Q01DX011 (ip), vehicle: water”, the T/C is 19 % of control and 47 % of control.

With `CC(=O)N(C)C`, the T/C is 75 % of control and 114 % of control (dose: 500.0 mg/kg/injection, schedule: Q01DX001 (ip), vehicle: saline); 55 % of control and 106 % of control (dose: 500.0 mg/kg/injection, schedule: Q01DX011 (sc), vehicle: saline); 70 % of control and 105 % of control (dose: 1000.0 mg/kg/injection, schedule: Q01DX011 (ip), vehicle: saline); 41 % of control and 82 % of control (dose: 1000.0 mg/kg/injection, schedule: Q01DX011 (oral), vehicle: saline); 50 % of control and 86 % of control (dose: 2000.0 mg/kg/injection, schedule: Q01DX001 (ip), vehicle: saline).

On to `O=NN(CCCl)C(=O)NCCCl`, for which the T/C (dose: 0.81 mg/kg/injection, schedule: Q01DX011 (ip), vehicle: saline) is 86 % of control and 156 % of control; the T/C (dose: 1.7 mg/kg/injection, schedule: Q01DX011 (ip), vehicle: carboxymethylcellulose (CMC)) was 32 % of control and 76 % of control.

For `c1ccc2[nH]cnc2c1`, the T/C was 66 % of control, 83 % of control, 99 % of control (dose: 154.0 mg/kg/injection, schedule: Q01DX011 (ip), vehicle: carboxymethylcellulose (CMC)); 29 % of control and 88 % of control (dose: 308.0 mg/kg/injection, schedule: Q01DX011 (ip), vehicle: carboxymethylcellulose (CMC)).

In the case of `CCC(=O)NC`, the T/C (dose: 1250.0 mg/kg/injection, schedule: Q01DX011 (ip), vehicle: other) was 1 % of control and 63 % of control.

Consider `Clc1ncnc2nc[nH]c12`, for which the T/C (dose: 18.75 mg/kg/injection, schedule: Q01DX001 (ip), vehicle: carboxymethylcellulose (CMC)) is 52 % of control and 105 % of control.

Consider `O=S(=O)(F)c1ncnc2nc[nH]c12`, for which, under “dose: 25.0 mg/kg/injection, schedule: Q01DX011 (ip), vehicle: methylcellulose (MC)”, the T/C was 12 % of control and 114 % of control.

On to `CCCCCCn1cnc2c(=S)nc[nH]c21`, for which the T/C is, setting by setting: (dose: 125.0 mg/kg/injection, schedule: Q01DX011 (ip), vehicle: carboxymethylcellulose (CMC)) 60 % of control and 94 % of control; (dose: 250.0 mg/kg/injection, schedule: Q01DX011 (ip), vehicle: carboxymethylcellulose (CMC)) 39 % of control and 69 % of control.

`CNC=O`: the T/C runs as follows: (dose: 46.83 mg/kg/injection, schedule: Q01DX011 (ip), vehicle: carboxymethylcellulose (CMC)) 83 % of control and 124 % of control; (dose: 171.5 mg/kg/injection, schedule: Q01DX011 (ip), vehicle: carboxymethylcellulose (CMC)) 45 % of control and 105 % of control.

For the molecule `C[C@]12C=CC(=O)C=C1CC[C@H]1[C@@H]3C[C@@H](O)[C@](O)(C(=O)CO)[C@@]3(C)C[C@H](O)[C@@]12F`, the T/C is, setting by setting: (dose: 6.25 mg/kg/injection, schedule: Q01DX011 (sc), vehicle: steriod suspending solution) 34 % of control, 50 % of control, 91 % of control; (dose: 25.0 mg/kg/injection, schedule: Q01DX011 (sc), vehicle: steriod suspending solution) 13 % of control, 17 % of control, 63 % of control; (dose: 50.0 mg/kg/injection, schedule: Q01DX011 (sc), vehicle: steriod suspending solution) 10 % of control and 43 % of control.

With `Oc1ccc2ccccc2c1N=Nc1ccc(F)cc1`, the T/C (dose: 112.0 mg/kg/injection, schedule: Q01DX011 (ip), vehicle: carboxymethylcellulose (CMC)) is 19 % of control and 50 % of control; the T/C (dose: 200.0 mg/kg/injection, schedule: Q01DX011 (ip), vehicle: carboxymethylcellulose (CMC)) is 29 % of control and 64 % of control.

In the case of `NC(CCSCc1ccc(N(CCCl)CCCl)cc1)C(=O)O` (stereo not given), the T/C (dose: 18.0 mg/kg/injection, schedule: Q01DX011 (ip), vehicle: saline) was 19 % of control and 45 % of control.

Turning to `CNC(C)=O`, the T/C (dose: 500.0 mg/kg/injection, schedule: Q01DX011 (ip), vehicle: carboxymethylcellulose (CMC)) is 84 % of control and 114 % of control.

Turning to `C[C@H]1C[C@H]2[C@@H]3CC[C@](O)(C(=O)CF)[C@@]3(C)C[C@H](O)[C@]2(F)[C@@]2(C)C=CC(=O)C=C12`, the T/C (dose: 2.5 mg/kg/injection, schedule: Q01DX011 (sc), vehicle: steriod suspending solution) is 43 % of control and 79 % of control; the T/C (dose: 5.0 mg/kg/injection, schedule: Q01DX011 (sc), vehicle: steriod suspending solution) was 13 % of control and 55 % of control.

Turning to `O=C(Nc1ccc([N+](=O)[O-])cc1)Nc1ccc([N+](=O)[O-])cc1` (tested in a mixture with another compound), the T/C is, setting by setting: under setting [1], 82 % of control and 109 % of control; (dose: 350.0 mg/kg/injection, schedule: Q01DX011 (ip), vehicle: methylcellulose (MC)) 57 % of control, 73 % of control, 112 % of control.
